This passage reports cell count results from the supplement of paper PMC4604168 (melanoma cell lines).

This is one part of the list. Most values come without repeats; read them as rough.
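Also: cells treated in 1,536-well plates, then fixed and DAPI-stained, with nuclei counted from automated high-throughput microscope images.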

The assay has as its system A101D. Briefly: cell count relative to DMSO control; melanoma cells; higher = more viable cells. Particulars: library dose: standard library concentration; 72 h; first compound 2 µM.
In turn, `C[C@@H](N)c1ccc(C(=O)Nc2ccnc3[nH]ccc23)cc1` + CC(C)C[C@H](NC(=O)[C@H](Cc1ccccc1)NC(=O)c1cnccn1)B(O)O [Bortezomib] (partner dose 0.005 µM) registered a cell count of 19.5%.

`CCCCCCCCCCCCCCCCCCOP(=O)([O-])OC1CC[N+](C)(C)CC1` [Perifosine] + COc1cc2c(Oc3ccc4[nH]c(C)cc4c3F)ncnc2cc1OCCCN1CCCC1 [cediranib] (partner dose 2 µM) registered a cell count of 122%.

In the case of `Cn1sc(=O)n(Cc2ccccc2)c1=O` + COc1cc2c(Oc3ccc4[nH]c(C)cc4c3F)ncnc2cc1OCCCN1CCCC1 [cediranib] (partner dose 2 µM), the cell count is 97.1%.

With `C[C@@H](N)c1ccc(C(=O)Nc2ccnc3[nH]ccc23)cc1` + Clc1ccc(Nc2nnc(Cc3ccncc3)c3ccccc23)cc1 [vatalanib] (partner dose 10 µM), the cell count amounted to 75%.

`CCCCCCCCCCCCCCCCCCOP(=O)([O-])OC1CC[N+](C)(C)CC1` [Perifosine] + CC(C)(C)c1cnc(CSc2cnc(NC(=O)C3CCNCC3)s2)o1 [SNS-032] (partner dose 0.05 µM): the cell count came to 74.9%.

As for `CCCCCCCCCCCCCCCCCCOP(=O)([O-])OC1CC[N+](C)(C)CC1` [Perifosine] + CNC(=O)c1cc(Oc2ccc(NC(=O)Nc3ccc(Cl)c(C(F)(F)F)c3)cc2)ccn1 [sorafenib] (partner dose 2 µM), the cell count amounted to 103%.

The compound `CCCCCCCCCCCCCCCCCCOP(=O)([O-])OC1CC[N+](C)(C)CC1` [Perifosine] + COc1cc(Nc2ncc(F)c(Nc3ccc4c(n3)NC(=O)C(C)(C)O4)n2)cc(OC)c1OC [Tamatinib] (partner dose 2 µM) came in with a cell count of 33.8%.

On to `C[C@@H](N)c1ccc(C(=O)Nc2ccnc3[nH]ccc23)cc1` + C[C@@H]1CCN(C(=O)CC#N)C[C@@H]1N(C)c1ncnc2[nH]ccc12 [CP690550] (partner dose 5 µM), for which the cell count is 68.3%.

As for `C[C@@H](N)c1ccc(C(=O)Nc2ccnc3[nH]ccc23)cc1` + O=C(O)c1ccc2c(c1)nc(Nc1cccc(Cl)c1)c1ccncc12 [CX4945] (partner dose 2 µM), the cell count came to 56.3%.

`CCCCCCCCCCCCCCCCCCOP(=O)([O-])OC1CC[N+](C)(C)CC1` [Perifosine] + CC(C)C[C@H](NC(=O)[C@H](Cc1ccccc1)NC(=O)c1cnccn1)B(O)O [Bortezomib] (partner dose 0.005 µM) had a cell count of 8.83%.

Compound `Cn1sc(=O)n(Cc2ccccc2)c1=O` + CC(C)C[C@H](NC(=O)[C@H](Cc1ccccc1)NC(=O)c1cnccn1)B(O)O [Bortezomib] (partner dose 0.005 µM) showed a cell count of 16.3%.

Take `CCCCCCCCCCCCCCCCCCOP(=O)([O-])OC1CC[N+](C)(C)CC1` [Perifosine] + O=C(/C=C/c1cccnc1)NCCCCC1CCN(C(=O)c2ccccc2)CC1 [FK866] (partner dose 0.05 µM): the cell count is 119%.

`Cn1sc(=O)n(Cc2ccccc2)c1=O` + Cc1nc(Nc2ncc(C(=O)Nc3c(C)cccc3Cl)s2)cc(N2CCN(CCO)CC2)n1 [dasatanib] (partner dose 0.02 µM): the cell count was 65.5%.

In turn, `Cn1sc(=O)n(Cc2ccccc2)c1=O` + Cc1ccc(NC(=O)c2cccc(N(C)C)c2)cc1NC(=O)c1ccc(O)cc1 [ZM336372] (partner dose 10 µM) yielded a cell count of 83.6%.

Turning to `CCCCCCCCCCCCCCCCCCOP(=O)([O-])OC1CC[N+](C)(C)CC1` [Perifosine] + CC(=O)O[C@@]12CO[C@@H]1C[C@H](O)[C@@]1(C)C(=O)[C@H](O)C3=C(C)[C@@H](OC(=O)[C@H](O)[C@@H](NC(=O)OC(C)(C)C)c4ccccc4)C[C@@](O)([C@@H](OC(=O)c4ccccc4)[C@H]21)C3(C)C [Docetaxel] (partner dose 0.0005 µM), the cell count was 49.1%.

As to `Cn1sc(=O)n(Cc2ccccc2)c1=O` + O=C(CCCCCCC(=O)Nc1ccccc1)NO [vorinostat] (partner dose 0.4 µM), the cell count is 81.7%.

As for `Cn1sc(=O)n(Cc2ccccc2)c1=O` + NC1(c2ccc(-c3nc4ccn5c(=O)[nH]nc5c4cc3-c3ccccc3)cc2)CCC1 [MK2206] (partner dose 2 µM), the cell count was found to be 88.9%.

In turn, `C[C@@H](N)c1ccc(C(=O)Nc2ccnc3[nH]ccc23)cc1` + C[C@]1(O)C[C@@H](c2nc(-c3ccc4ccc(-c5ccccc5)nc4c3)c3c(N)nccn32)C1 [OSI906] (partner dose 2 µM) showed a cell count of 72%.
